For 20 variants, self-cleavage results are on record in the RNAGym collection of RNA variant scans (doi:10.7554/elife.90254).

Read counts are not given, so values of variants with three or more changes are uncertain.

First the molecules themselves.
B1: LINE1-full (parent)
chain: UACGUAGGUGGUUUUCCCCUGAUAGUGCUAAGGGGGCCUGGAAGUUUGGACUGGGCAGAGCUCAACACAGCGUGGCAAAGUGGCUGUGGCUAGACUGCCUCUCUGGAUUCCUCGUCACUCAGCAGGGCAUCUCUGAGAGAAAUGCC

The variants in the data set derive from B1. In words: self-cleavage, relative activity (ratio to wild type); higher = more cleavage; in vitro, sequencing; the parent is a self-cleaving ribozyme.
With UACGUAGGUGGCUUUCCCCUGAUAGUGCUAAGGGGGCCUGGAAGUUUGGACUGUGCAGAGCUCGACACAGCGUGGCAAAGUGGCUGUGGCUAGACCGCCUCUCUGGAUUCCUCGUCACUCAGCAGGGCAUCUCUGAGAGAAAUGCC [U12C G54U A64G U96C], the self-cleavage was found to be 0.3.

For the variant UACGUAGGUGGUCUUCCCCUGAUAGUGCUAGGGGGGCCUGGAAGUUUGGACUGGGCAGAGCUCAACACAGCGUGGCAAAGUGGCUGUGGCUAGACUGCCUCUCUGGACUCCUCGUCACUCAGCAGGGCAUCUCUGAGAGAAAUGCC [U13C A31G U108C], the self-cleavage was 1.45.

Consider UACGUAGGUGGUUUUCCCCUGAUAACGCUAAGGGGGCCUGGAUGUUUGGACUGGGCAGAGCCCAACACAGCGUGGCAAGGUGGCUGUGGCUAGACUGCCUCUCUGGAUUCCUCGUCACUCAGCAGGGCAUCUCUGAGAGACAUGCC [G25A U26C A43U U62C A79G A141C], for which the self-cleavage stood at 0.18.

Regarding UACGUAGGUGGUUUUCCCCUGGUAGUGCUAAGGGGGCCUGGAAGUUUGGACUGGGCAGAGCCCAACACAGCGUGGCAAAGUGGCUGUGGCUAGACUGCCUCUCUGGAUUCCUCGUCACUCAGCUGGGCAUCUCUGGGAGAAAUGCC [A22G U62C A124U A136G], the self-cleavage stood at 0.3.

For the variant UACGUAGGUGGUUUUCCCCUGACAGCGCUAAGGGGGCCUGGAAGUUUGGACUGGGCGGAGCUCAACACAGCGUGGCAAAGUGGCUGUGGCUAGACUGCCUCUCUGGAUUCCUCGUCACCCAGCAGGGCAUCUCUGAGAGUAAUGCC [U23C U26C A57G U119C A140U], the self-cleavage worked out at 0.

As for UACGUAGGUGGUUUUCCCCUGAUAGUGCUAAGGGGGCCAGGAAGUUUGGACCGGGCAGAGCUCACCACAGCGUGGCAAAGUGGCUGUGGCUAGACUGCCUCUCUGGAUUCCCCGUCACUCAGCAGGGCAUCUCUGAGGGAAAUGCC [U39A U52C A65C U112C A138G], the self-cleavage amounted to 0.

Turning to UACGUAGGCGGUUUUCCCCUGAUAGUGCCAAGGGGGCCUGGAAGUUUGGACUGGGCAGAGCUCAUCACAGCGUGGCAAAGUGGCUGUGGCUAGACUGCCUCUCUGGAUUCCUCGUCACUCAGCAGGGCAUCUCUGAGAGAAAUGCC [U9C U29C A65U], the self-cleavage came to 0.32.

Regarding UACGUAGGUGGUUUUCCCCUGAUAGUGCUAAGGGGGCCUGGAAGUUUGGACUGGGCAGAGCCCAACACAGCGUGGCAAGGUGGCUGCGGCUAGACUGCCUCUCUGGAUUCCUCGUCACUCAGCAGGGCAUCUCUGAGAGAAAUGCC [U62C A79G U87C], the self-cleavage was 0.77.

For the variant UACGUAGGUGGUUUUCCCCUGAUAGUGCUAAGGGGGCCAGGAAGUUUGGACUGGGCAGAGCUCAACACAGCGUGGCAAAGUGGCUGUGGCUAAACUGCCUCUCUGGAUUCCUUGUCACUCAGCAGGGCAUCUCUGAGAGAAAUGCC [U39A G93A C113U], the self-cleavage stood at 0.04.

On to UACGUAGGUGGUUUUCCCCUGAUAGUGCUAAGGGGGCCUGGAAGUUUGGACUGGGCUGAGCUCAACACAGCGUGGCAAGGUGGCUGUGGCUAGACUGCCUCUCAGGAUUCCUCGUCACUCAGCAGGGCAUCUCCGAGAGAAAUGCC [A57U A79G U104A U134C], for which the self-cleavage was found to be 0.09.

In the case of UACGUGGGUGGUUUUCCCCUGAUAGUGCUAAGGGGGCUUGGAAGUUUGGACUGGGCAGAGCUCGACACAGCGUGGCAAAGUGGCUGUGGCUAGACUGCCUCUCUGGAUUCCCCGUCACUCAGCAGGGCAUCUCUGAGAGAAAUGCC [A6G C38U A64G U112C], the self-cleavage was 0.22.

In the case of UACGUAGGUGGUUUUCCCCUGAUAGUGCUAAGGGGCCCUGGAAGCUUGGACUGGGCAGAGCUCAACACAGCGUGGCAAAGAGGCUGUGGCUAGACUGCCUCUCUGGAUUCCUCGUCACUCAGCAGGGUAUCUCUGAGAGAAAUGCC [G36C U45C U81A C128U], the self-cleavage amounted to 1.86.

Take UACGUAGGUGGUUUUCCCCUGAUAGUGCUAAGGGGGCCUGGAGGUUUGGACUGGGCAGAGCUCAACACAGCGAGGCAAAGUGGCUGUGGCUAGACUGCCUCUCUGGAUUCCUCGUCACUCAGCAGGGCACCUCUGAGAGAAAUGCC [A43G U73A U130C]: the self-cleavage was 0.7.

UACGUAGGUGGUUCUCCCCUGAUGGUGCUAAGGGGGCCUGGGAGUUUGGACUGGGCAGAGCUCAACUCAGCGUGGCAAAGUGGCUGUGGCUAGACAGCCUCUCUGGAUUCCUCGUCACUCAGCAGGGCAUCUCUGAGAGAAAUGCC [U14C A24G A42G A67U U96A]: the self-cleavage was 0.

Consider UACGUAGGUGGUUUUCCCCCGAUAGGGCUAUGGGGGCCUGGAAGUUUGGGCUGGGCAGAGCUCAACACAGCGUGGCAAAGUGGCUGUGGCUUGACUGCCUCUCUGGAUUCCUCGUCACUCAGCAUGGCAUCUCUGAGAGAAAUGCC [U20C U26G A31U A50G A92U G125U], for which the self-cleavage was 0.26.

With UACGUAGGUGGUUUUCCCCUGAUAGUGCUAAGGGGGCCUGGAAGUUUGGACUGGGCAGAGCUCAACACAGCGUGGCAAAGUGGCUGUGGCUAGACUGCCACUCUGGAUUCCUCGUCACCCUGCAGGGCAUCUCUGAGAGAAAUGCC [U100A U119C A121U], the self-cleavage was found to be 0.97.

Turning to UACGUAGGUGGUUUCCCCCUGAUAGUGCUAAGGGGGCCUGGAAGUUUGGGCUGGGCAGAGCUCAACACAGCGUGGCAAAGUGGCUGUGGCUAGACUGCCUCUCUGGAUUCCUCGUCACUCAGCAGGGCAUCUCUGAGAGAGAUGCC [U15C A50G A141G], the self-cleavage turned out to be 1.4.

For CACGUAGGUGGUUUUCCCCUGAUAGUGCUAAGGGGGCCUGGAAGUUUGGACUGGGCAGAGCUCAACACAGCGUGGCAAAGUGGCUGCGGCUAGACUGCCUCUCUGGAUUCCUCGUCACUCAGCAGGGCAUCUCUGAGAGCAAUGCC [U1C U87C A140C], the self-cleavage came out at 0.12.

For UACGUAGGUGGCUUUCCCCUGAUAGUGCUAAGGGGGCCUGGAAGUUUGGACUGGGCAGAGCUCAACACAGCGUGGCAAAGUGGCUGUGGCUUGACUGCCUCUCUGGAUUCCUCGUUACUCAGCGGGGCAUCUCUGAGAGAAAUGCC [U12C A92U C116U A124G], the self-cleavage came out at 0.41.

UACGUAGGUGGUUUUCCCCUGGUAGUGCUAAGUGGGCCUGGAAGCUUGGACUGGGCGGAGCUCAACACAGCGUGGCAAAGUGGCUGUGGCUAGACUGCCUCUCUGGAUUCCUCGCCACUCAGCAGGGCAUCUCUGAGAGAAAUGCC [A22G G33U U45C A57G U115C]: the self-cleavage stood at 0.
